The list shows a part of the results. Values were computed here from the reads of four pooled replicates and scatter widely.
The sequences below were run against T1, Pho4 (S. cerevisiae) (UniProt P07270) (assay: relative binding free energy (BET-seq); higher = weaker binding). Details: reference: library average.
T1 sequence: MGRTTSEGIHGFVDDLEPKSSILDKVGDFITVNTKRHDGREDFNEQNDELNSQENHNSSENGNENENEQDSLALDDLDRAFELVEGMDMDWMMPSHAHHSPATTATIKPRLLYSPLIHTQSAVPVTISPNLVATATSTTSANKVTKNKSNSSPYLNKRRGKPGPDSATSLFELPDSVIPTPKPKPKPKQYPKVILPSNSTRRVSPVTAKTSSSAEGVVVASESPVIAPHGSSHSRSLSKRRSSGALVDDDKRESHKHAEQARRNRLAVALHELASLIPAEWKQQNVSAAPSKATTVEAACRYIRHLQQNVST
With TGAAGCACGTGGCGGA the “relative binding free energy” value was -0.14 kcal/mol. With TGGTACACGTGGGGGT the “relative binding free energy” value was -0.08 kcal/mol. GCATTCACGTGTTATG was tested, and the “relative binding free energy” value was 0.25 kcal/mol. TTTGTCACGTGAATGT was tested, and the “relative binding free energy” value was 0.29 kcal/mol. With GGTATCACGTGGATCG the “relative binding free energy” value was 0.32 kcal/mol. For TGATTCACGTGAATTG, the “relative binding free energy” value was 0.36 kcal/mol. With GTTCACACGTGTGTGA the “relative binding free energy” value was 0.05 kcal/mol. TAGGTCACGTGCAGTT was tested, and the “relative binding free energy” value was 0.06 kcal/mol. TGACTCACGTGATTTT was tested, and the “relative binding free energy” value was 0.31 kcal/mol. ATAATCACGTGAATGG was tested, and the “relative binding free energy” value was 0.28 kcal/mol. With CTAAGCACGTGTTAGG the “relative binding free energy” value was -0.06 kcal/mol. CTTTGCACGTGGATAT was tested, and the “relative binding free energy” value was -0.01 kcal/mol. In the case of CTTGACACGTGCTTGG, the “relative binding free energy” value is reported as -0.06 kcal/mol. For TATTGCACGTGTTGAA, the “relative binding free energy” value was -0.04 kcal/mol. In the case of TTTCTCACGTGTGAGG, the “relative binding free energy” value is reported as 0.24 kcal/mol. TGGGCCACGTGATTGG was tested, and the “relative binding free energy” value was 0.11 kcal/mol. In the case of TTTTTCACGTGAGTCA, the “relative binding free energy” value is reported as 0.32 kcal/mol. TTGTGCACGTGTTCGA was tested, and the “relative binding free energy” value was -0.07 kcal/mol. In the case of GATTACACGTGGTTAA, the “relative binding free energy” value is reported as 0.14 kcal/mol. With TAATTCACGTGGGAAG the “relative binding free energy” value was 0.16 kcal/mol. With AAGGGCACGTGGAAGA the “relative binding free energy” value was 0.05 kcal/mol. In the case of GGGCTCACGTGGGAAG, the “relative binding free energy” value is reported as 0.22 kcal/mol. For GCTGGCACGTGGGGGG, the “relative binding free energy” value was -0.26 kcal/mol. With CTATTCACGTGTAGTT the “relative binding free energy” value was 0.09 kcal/mol. AGTACCACGTGTGTTT was tested, and the “relative binding free energy” value was -0.06 kcal/mol. In the case of TGTACCACGTGGTTTT, the “relative binding free energy” value is reported as -0.13 kcal/mol. In the case of ACTGGCACGTGATTGG, the “relative binding free energy” value is reported as -0.07 kcal/mol. In the case of ACTGTCACGTGTGGAT, the “relative binding free energy” value is reported as 0.09 kcal/mol. GGAAGCACGTGTGAAG was tested, and the “relative binding free energy” value was 0.11 kcal/mol. In the case of CGATGCACGTGTTGGA, the “relative binding free energy” value is reported as 0.03 kcal/mol. AATTACACGTGATGAG was tested, and the “relative binding free energy” value was 0.36 kcal/mol. With AGCATCACGTGTAGGT the “relative binding free energy” value was 0.04 kcal/mol. In the case of AGAAACACGTGTGGTA, the “relative binding free energy” value is reported as 0.08 kcal/mol. With ACATTCACGTGGGGGC the “relative binding free energy” value was 0.25 kcal/mol. For GATGGCACGTGGGTAG, the “relative binding free energy” value was -0.1 kcal/mol. CTTTACACGTGAATTT was tested, and the “relative binding free energy” value was 0.33 kcal/mol. CGGCGCACGTGTTGGG was tested, and the “relative binding free energy” value was -0.14 kcal/mol. With GGTGTCACGTGAGTGT the “relative binding free energy” value was 0.34 kcal/mol. For GGTAACACGTGTATAT, the “relative binding free energy” value was 0.08 kcal/mol. For CGCAGCACGTGGTAGT, the “relative binding free energy” value was -0.13 kcal/mol. GTAGCCACGTGATGGT was tested, and the “relative binding free energy” value was 0.16 kcal/mol. With GTTTGCACGTGTGCTG the “relative binding free energy” value was 0.13 kcal/mol. TTTGCCACGTGGGGGC was tested, and the “relative binding free energy” value was -0.18 kcal/mol. In the case of GTGTGCACGTGCAGTG, the “relative binding free energy” value is reported as 0.05 kcal/mol. GAGTACACGTGAGTTT was tested, and the “relative binding free energy” value was 0.19 kcal/mol. With TTAATCACGTGTAGAT the “relative binding free energy” value was 0.07 kcal/mol. CATTTCACGTGGGCTT was tested, and the “relative binding free energy” value was 0.22 kcal/mol. GCATGCACGTGTGGCT was tested, and the “relative binding free energy” value was 0.02 kcal/mol. TGGGTCACGTGTCCGT was tested, and the “relative binding free energy” value was 0.08 kcal/mol. For TTTAGCACGTGGACTG, the “relative binding free energy” value was -0.04 kcal/mol. With TGAGGCACGTGGCGGA the “relative binding free energy” value was -0.24 kcal/mol. With ATTTTCACGTGCAGTG the “relative binding free energy” value was 0.33 kcal/mol. For GGGAGCACGTGGGGGT, the “relative binding free energy” value was -0.17 kcal/mol. In the case of TGCGACACGTGCGGGC, the “relative binding free energy” value is reported as 0.11 kcal/mol. For TTTTTCACGTGATAGT, the “relative binding free energy” value was 0.33 kcal/mol. For TCGGGCACGTGATGCG, the “relative binding free energy” value was 0 kcal/mol. In the case of TGTGTCACGTGTAGGG, the “relative binding free energy” value is reported as -0.02 kcal/mol. For TTGCTCACGTGAGATG, the “relative binding free energy” value was 0.33 kcal/mol. For TTATACACGTGGTGAT, the “relative binding free energy” value was -0.12 kcal/mol. For TTAGTCACGTGGTCCG, the “relative binding free energy” value was -0.02 kcal/mol. For GATGACACGTGGCTTG, the “relative binding free energy” value was 0.03 kcal/mol. TGGCGCACGTGCGAAG was tested, and the “relative binding free energy” value was 0.13 kcal/mol. With GGTAGCACGTGAGGGT the “relative binding free energy” value was 0.27 kcal/mol. For GTTTTCACGTGACGGA, the “relative binding free energy” value was 0.5 kcal/mol. With ATTTGCACGTGTCAGG the “relative binding free energy” value was 0.1 kcal/mol. In the case of TAGGTCACGTGGATGA, the “relative binding free energy” value is reported as -0.06 kcal/mol. In the case of TGGTCCACGTGGTGGT, the “relative binding free energy” value is reported as 0.09 kcal/mol. GTGCTCACGTGAGTAT was tested, and the “relative binding free energy” value was 0.43 kcal/mol. For AAGTGCACGTGTCGAG, the “relative binding free energy” value was 0.03 kcal/mol. TAGTTCACGTGCTATT was tested, and the “relative binding free energy” value was 0.2 kcal/mol. With ACAGTCACGTGGTTAT the “relative binding free energy” value was 0.04 kcal/mol. For TGTGCCACGTGCGTGG, the “relative binding free energy” value was -0.24 kcal/mol. With AGCGGCACGTGTATGT the “relative binding free energy” value was -0.05 kcal/mol. TTGGGCACGTGCCATG was tested, and the “relative binding free energy” value was -0.21 kcal/mol. In the case of AGGGGCACGTGTCTGC, the “relative binding free energy” value is reported as -0.14 kcal/mol. With TGCGTCACGTGTAGGG the “relative binding free energy” value was 0.03 kcal/mol. With GCGATCACGTGTGTTG the “relative binding free energy” value was 0.19 kcal/mol. With TGGTTCACGTGTATAG the “relative binding free energy” value was 0.25 kcal/mol. In the case of AGTGTCACGTGGCAGT, the “relative binding free energy” value is reported as 0.06 kcal/mol. With GTTATCACGTGTGTGG the “relative binding free energy” value was 0.27 kcal/mol. GTAGTCACGTGGATAG was tested, and the “relative binding free energy” value was 0.19 kcal/mol. For GCGCGCACGTGAGGGG, the “relative binding free energy” value was 0 kcal/mol. AGGTACACGTGGTAGG was tested, and the “relative binding free energy” value was -0.08 kcal/mol. With ATAGTCACGTGGCGGA the “relative binding free energy” value was 0.07 kcal/mol. For TGTGGCACGTGGGCGA, the “relative binding free energy” value was -0.17 kcal/mol. With TGGATCACGTGTATTC the “relative binding free energy” value was 0.1 kcal/mol. In the case of TGCTGCACGTGGGGCA, the “relative binding free energy” value is reported as -0.1 kcal/mol. For GGTACCACGTGTGGTG, the “relative binding free energy” value was -0.04 kcal/mol. With AGCGTCACGTGGTATG the “relative binding free energy” value was -0.03 kcal/mol. With TTTTTCACGTGGGCGC the “relative binding free energy” value was 0.21 kcal/mol. For TGGGGCACGTGACGGA, the “relative binding free energy” value was 0.03 kcal/mol. GTGAGCACGTGGAAAT was tested, and the “relative binding free energy” value was 0.13 kcal/mol. With TCTTTCACGTGGTTAA the “relative binding free energy” value was 0.19 kcal/mol. TGTCGCACGTGATTAT was tested, and the “relative binding free energy” value was 0.09 kcal/mol. CGCGTCACGTGAGAGG was tested, and the “relative binding free energy” value was 0.23 kcal/mol. In the case of GTGGCCACGTGATTGG, the “relative binding free energy” value is reported as 0.1 kcal/mol. With TGGCCCACGTGGCGGG the “relative binding free energy” value was -0.35 kcal/mol. In the case of GTGCGCACGTGCAGGG, the “relative binding free energy” value is reported as -0.1 kcal/mol. With TAGGTCACGTGAGGCC the “relative binding free energy” value was 0.3 kcal/mol. GTGTTCACGTGGGCTA was tested, and the “relative binding free energy” value was 0.13 kcal/mol. In the case of GTGGTCACGTGTCTTG, the “relative binding free energy” value is reported as 0.2 kcal/mol. For GTTGCCACGTGTATAG, the “relative binding free energy” value was 0.06 kcal/mol. In the case of TTGAACACGTGTTAGA, the “relative binding free energy” value is reported as -0.01 kcal/mol. CGTCACACGTGTTGTT was tested, and the “relative binding free energy” value was 0.07 kcal/mol. TGATGCACGTGTAAGG was tested, and the “relative binding free energy” value was 0.15 kcal/mol. TTATGCACGTGTTTAC was tested, and the “relative binding free energy” value was -0.1 kcal/mol. With AATATCACGTGTGAGG the “relative binding free energy” value was 0.17 kcal/mol. In the case of ATTCTCACGTGGAGGG, the “relative binding free energy” value is reported as 0.15 kcal/mol. For GAGTACACGTGACTGG, the “relative binding free energy” value was 0.28 kcal/mol. With GAGAACACGTGGGTTT the “relative binding free energy” value was -0.02 kcal/mol. For TTTATCACGTGAGGTC, the “relative binding free energy” value was 0.27 kcal/mol. For GGGTACACGTGAAGTG, the “relative binding free energy” value was 0.32 kcal/mol. In the case of GGTAACACGTGGGAGC, the “relative binding free energy” value is reported as 0 kcal/mol. With TTCGGCACGTGAGCGT the “relative binding free energy” value was 0.03 kcal/mol. With AAGATCACGTGTTAAT the “relative binding free energy” value was 0.06 kcal/mol.
